Sequences and labels used below:
B1: PhoQ; a variant is named by its letters at X, in order, P23837 (parent)
chain: MKKLLRLFFPLSLRVRFLLATAAVVLVLSLAYGMVALIGYSVSFDKTTFRLLRGESNLFYTLAKWENNKLHVELPENIDKQSPTMTLIYDENGQLLWAQRDVPWLMKMIQPDWLKSNGFHEIEADVNDTSLLLSGDHSIQQQLQEVREDDDDAEMTHSVAVNVYPATSRMPKLTIVVVDTIPVELKSSYMVWSWFIYVLSANLLLVIPLLWVAAWWSLRPIEALAKEVRELEEHNRELLNPATTRELTSLVRNLNRLLKSERERYDKYRTTLTDLTHSLKTPLXXLQXXLRSLRSEKMSVSDAEPVMLEQISRISQQIGYYLHRASMRGGTLLSRELHPVAPLLDNLTSALNKVYQRKGVNISLDISPEISFVGEQNDFVEVMGNVLDNACKYCLEFVEISARQTDEHLYIVVEDDGPGIPLSKREVIFDRGQRVDTLRPGQGVGLAVAREITEQYEGKIVAGESMLGGARMEVIFGRQHSAPKDE

The other results are listed elsewhere or left out. A value given as a limit tells only on which side of the number the result lay.

The variants in this test derive from B1. As to the kind of experiment: enrichment ratio after two sorts for PhoP signalling (ratio (wild type AVST 3.29)); higher = more functional. The settings on record: with PhoP (E. coli).
As to RASM, the enrichment ratio was ≤ 0.25.
For QLAH, the enrichment ratio was ≤ 0.25.
Next, IMFD: ≤ 0.25; WHTM: ≤ 0.25; VFNY: ≤ 0.25.
In the case of IAKE it was ≤ 0.25; in that of QWPR, ≤ 0.25; in that of NHWD, ≤ 0.25.
Next, LIRP: ≤ 0.25; YCVY: ≤ 0.25; RMWF: ≤ 0.25.
Consider FQDQ, for which the enrichment ratio was ≤ 0.25.
Take LPYF: the enrichment ratio was ≤ 0.25.
In the case of HSHI it was ≤ 0.25.
On to QGTV, for which the enrichment ratio was 0.483.
For GTFA, the enrichment ratio was ≤ 0.25.
In the case of FNDH it was ≤ 0.25; in that of FNTC, ≤ 0.25; in that of GHHR, ≤ 0.25.
As for MGLK, the enrichment ratio is ≤ 0.25.
QDHF: the enrichment ratio was ≤ 0.25.
On to LIKY, for which the enrichment ratio is ≤ 0.25.
As to RSDH, the enrichment ratio was ≤ 0.25.
Next, NQSR: ≤ 0.25.
Next, AFMD: ≤ 0.25.
In the case of YNMN it was ≤ 0.25; in that of YFGF, ≤ 0.25; in that of RETC, ≤ 0.25.
Take MQVK: the enrichment ratio was ≤ 0.25.
Regarding NNTP, the enrichment ratio is ≤ 0.25.
In the case of YMMF it was ≤ 0.25; in that of YLHT, ≤ 0.25; in that of YHYS, ≤ 0.25.
In the case of HMTR it was ≤ 0.25.
Consider FWKT, for which the enrichment ratio was ≤ 0.25.
Next, NIER: ≤ 0.25.
On to KHNM, for which the enrichment ratio is ≤ 0.25.
In the case of FEPP it was ≤ 0.25.
Consider VLAY, for which the enrichment ratio was ≤ 0.25.
In the case of QCAN it was ≤ 0.25; in that of TTSA, 11.5.
Consider TYWD, for which the enrichment ratio was ≤ 0.25.
In the case of LDKN it was ≤ 0.25.
In the case of WPKD it was ≤ 0.25.
In the case of PSPC it was ≤ 0.25; in that of QRHQ, ≤ 0.25; in that of GDTK, ≤ 0.25.
QSYP: the enrichment ratio is ≤ 0.25.
For the variant GKTQ, the enrichment ratio was ≤ 0.25.
In the case of EDDP it was ≤ 0.25; in that of VQDS, ≤ 0.25.
Next, LRRC: ≤ 0.25; IDTF: ≤ 0.25; DPKS: ≤ 0.25.
Next, IYWF: ≤ 0.25.
Turning to MESE, the enrichment ratio is ≤ 0.25.
In the case of IEHK it was ≤ 0.25; in that of IQHQ, ≤ 0.25; in that of MLNY, ≤ 0.25.
For QCKR, the enrichment ratio was ≤ 0.25.
In the case of HNAW it was ≤ 0.25; in that of MMFY, ≤ 0.25; in that of KFVI, ≤ 0.25.
With DSIS, the enrichment ratio was ≤ 0.25.
Next, CLAY: ≤ 0.25; LDPY: ≤ 0.25; KGIV: ≤ 0.25.
Next, LRAF: ≤ 0.25.
In the case of GYKI it was ≤ 0.25.
Regarding EANA, the enrichment ratio was ≤ 0.25.
Regarding KAGY, the enrichment ratio is ≤ 0.25.
Next, IQWM: ≤ 0.25; IGMK: ≤ 0.25.
Consider KVFR, for which the enrichment ratio is ≤ 0.25.
Next, AKCR: ≤ 0.25; KGGT: ≤ 0.25.
In the case of TYPK it was ≤ 0.25; in that of NNQV, ≤ 0.25.
As to ARSL, the enrichment ratio worked out at 0.309.
Next, MENP: ≤ 0.25; MYPT: ≤ 0.25.
Next, ASDI: ≤ 0.25; NSPK: ≤ 0.25; NCEQ: ≤ 0.25.
Next, TCLE: ≤ 0.25; ARST: ≤ 0.25; WDDG: ≤ 0.25.
With SSPF, the enrichment ratio was ≤ 0.25.
Next, SSGI: 8.57; AIQI: 0.475.
In the case of HSFW it was ≤ 0.25; in that of MMQF, ≤ 0.25.
As for QLAC, the enrichment ratio is ≤ 0.25.
Turning to RLII, the enrichment ratio is ≤ 0.25.
In the case of DGTY, the enrichment ratio is ≤ 0.25.
Next, PYNP: ≤ 0.25; IMQT: ≤ 0.25; WALV: 3.55.
As to AQCG, the enrichment ratio is 4.1.
On to PRGW, for which the enrichment ratio was ≤ 0.25.
Next, DCDF: ≤ 0.25.
Next, IASW: ≤ 0.25.
Turning to RGPS, the enrichment ratio is ≤ 0.25.
In the case of IQDM it was ≤ 0.25.
In the case of LNVT, the enrichment ratio is ≤ 0.25.
In the case of PNGW it was ≤ 0.25; in that of HYKM, ≤ 0.25; in that of LREH, ≤ 0.25.
In the case of WSTF it was ≤ 0.25; in that of DAST, ≤ 0.25; in that of IDKW, ≤ 0.25.
Take CHAG: the enrichment ratio was ≤ 0.25.
In the case of EGQM, the enrichment ratio was ≤ 0.25.
Next, TTWG: 12.2; DCMS: ≤ 0.25.
On to MQMR, for which the enrichment ratio was ≤ 0.25.
In the case of DYAE it was ≤ 0.25; in that of DRNW, ≤ 0.25; in that of KFMK, ≤ 0.25.
For the variant KEMY, the enrichment ratio is ≤ 0.25.
Next, DDWI: ≤ 0.25; KSLP: ≤ 0.25.
In the case of QCGC, the enrichment ratio is ≤ 0.25.
Turning to IHLV, the enrichment ratio is ≤ 0.25.
Next, NLLH: ≤ 0.25; PNKL: ≤ 0.25.
In the case of TMSI it was 14.2; in that of RGNK, ≤ 0.25; in that of FHPY, ≤ 0.25.
Turning to ASDR, the enrichment ratio is ≤ 0.25.
With NEMD, the enrichment ratio was ≤ 0.25.
Next, MTSF: 5.24.
Next, NACG: ≤ 0.25.
Next, WNFN: ≤ 0.25; GWPV: ≤ 0.25; EKRS: ≤ 0.25.
As to QSQE, the enrichment ratio is ≤ 0.25.
Regarding ANSF, the enrichment ratio turned out to be 5.47.
In the case of DLSE it was ≤ 0.25.
As for EHFE, the enrichment ratio was ≤ 0.25.
Consider TGHH, for which the enrichment ratio was 1.85.
As for YNFM, the enrichment ratio is ≤ 0.25.
For the variant MKWY, the enrichment ratio was ≤ 0.25.
For PDRG, the enrichment ratio is ≤ 0.25.
Next, FIVG: ≤ 0.25.
Next, EHLW: ≤ 0.25.
Consider EVWF, for which the enrichment ratio was ≤ 0.25.
In the case of ARLK it was ≤ 0.25.
Take ILSP: the enrichment ratio was ≤ 0.25.
Next, ERYF: ≤ 0.25; QYNP: ≤ 0.25; KGWL: ≤ 0.25.
In the case of SLTD, the enrichment ratio is ≤ 0.25.
As to FIRC, the enrichment ratio was ≤ 0.25.
On to FQND, for which the enrichment ratio was ≤ 0.25.
Next, YYDY: ≤ 0.25; LNFV: ≤ 0.25.
On to PHKS, for which the enrichment ratio was ≤ 0.25.
In the case of HYIV it was ≤ 0.25; in that of GDHV, ≤ 0.25; in that of HTSC, ≤ 0.25.
Next, KIHE: ≤ 0.25; IMCV: ≤ 0.25.
For the variant LICA, the enrichment ratio was ≤ 0.25.
As for NDNF, the enrichment ratio is ≤ 0.25.
Next, DFAY: ≤ 0.25.
Take DPYG: the enrichment ratio is ≤ 0.25.
In the case of IWKT it was ≤ 0.25.
As for MGME, the enrichment ratio amounted to 13.
Next, RHKK: ≤ 0.25.
Next, RNRD: ≤ 0.25; WILT: ≤ 0.25.
In the case of QVTY it was ≤ 0.25; in that of WQLP, ≤ 0.25.
As for SGRT, the enrichment ratio is ≤ 0.25.
For IANV, the enrichment ratio is ≤ 0.25.
In the case of VTGL it was ≤ 0.25; in that of YYHT, ≤ 0.25.
Turning to WCCP, the enrichment ratio was ≤ 0.25.
For the variant MKYH, the enrichment ratio was ≤ 0.25.
In the case of VGNC it was ≤ 0.25.
In the case of PDYT it was ≤ 0.25.
Next, HRRT: ≤ 0.25; SIHI: ≤ 0.25; AHMR: ≤ 0.25.
As to MDTD, the enrichment ratio is ≤ 0.25.
Next, LLSY: ≤ 0.25.
In the case of YMMI it was ≤ 0.25.
In the case of WHPK, the enrichment ratio was ≤ 0.25.
Next, VANV: ≤ 0.25; WYVG: ≤ 0.25.
Next, LCAL: ≤ 0.25.
Regarding SRPN, the enrichment ratio is ≤ 0.25.
Consider SWCC, for which the enrichment ratio is ≤ 0.25.
For the variant RWHL, the enrichment ratio is ≤ 0.25.
